{"source": "the supplement of paper PMC8728848", "test_in_all_cases": "glycan array binding signal (z-score within array); higher = stronger binding", "conditions_in_all_cases": "glycan notation: IUPAC condensed, linker removed", "key": {"[1]": {"biological_target": "Gal(a1-3)Gal(b1-4)[Fuc(a1-3)]GlcNAc(b1-2)Man(a1-3)[Gal(a1-3)Gal(b1-4)[Fuc(a1-3)]GlcNAc(b1-2)Man(a1-6)]Man(b1-4)GlcNAc(b1-4)GlcNAc", "in_short": "(§1)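 The binding signal is a Z-score computed within each array and averaged over linkers. Arrays of the same protein sequence at different concentrations or buffers were also averaged together. Data originate from 3228 arrays in the Consortium for Functional Glycomics database, kept only where the protein sequence was available.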"}, "Gal(a1-3)GalNAc": {"biological_target": "Gal(a1-3)GalNAc", "in_short": "as §1"}, "[2]": {"biological_target": "Gal(a1-3)[Gal(a1-4)]Gal(b1-4)GlcNAc", "in_short": "as §1"}, "[3]": {"biological_target": "Gal(a1-4)Gal(b1-3)GlcNAc(b1-2)Man(a1-3)[Gal(a1-4)Gal(b1-3)GlcNAc(b1-2)Man(a1-6)]Man(b1-4)GlcNAc(b1-4)GlcNAc", "in_short": "as §1"}, "Gal(a1-4)Gal(b1-4)Glc": {"biological_target": "Gal(a1-4)Gal(b1-4)Glc", "in_short": "as §1"}, "Gal(a1-4)Gal(b1-4)GlcNAc": {"biological_target": "Gal(a1-4)Gal(b1-4)GlcNAc", "in_short": "as §1"}, "[4]": {"biological_target": "Gal(a1-4)Gal(b1-4)GlcNAc(b1-2)Man(a1-3)[Gal(a1-4)Gal(b1-4)GlcNAc(b1-2)Man(a1-6)]Man(b1-4)GlcNAc(b1-4)GlcNAc", "in_short": "as §1"}, "[5]": {"biological_target": "Gal(a1-4)Gal(b1-4)GlcNAc(b1-3)Gal(b1-4)Glc", "in_short": "as §1"}, "Gal(a1-4)GlcNAc": {"biological_target": "Gal(a1-4)GlcNAc", "in_short": "as §1"}, "Gal(a1-6)Glc": {"biological_target": "Gal(a1-6)Glc", "in_short": "as §1"}, "Gal(b1-2)Gal": {"biological_target": "Gal(b1-2)Gal", "in_short": "as §1"}, "Gal(b1-3)Gal": {"biological_target": "Gal(b1-3)Gal", "in_short": "as §1"}, "Gal(b1-3)Gal(b1-4)GlcNAc": {"biological_target": "Gal(b1-3)Gal(b1-4)GlcNAc", "in_short": "as §1"}, "[6]": {"biological_target": "Gal(b1-3)Gal(b1-4)GlcNAc(b1-2)Man(a1-3)[Gal(b1-3)Gal(b1-4)GlcNAc(b1-2)Man(a1-6)]Man(b1-4)GlcNAc(b1-4)GlcNAc", "in_short": "as §1"}, "Gal(b1-3)GalNAc": {"biological_target": "Gal(b1-3)GalNAc", "in_short": "as §1"}, "[7]": {"biological_target": "Gal(b1-3)GalNAc(a1-3)[Fuc(a1-2)]Gal(b1-4)Glc", "in_short": "as §1"}, "[8]": {"biological_target": "Gal(b1-3)GalNAc(a1-3)[Fuc(a1-2)]Gal(b1-4)GlcNAc", "in_short": "as §1"}, "Gal(b1-3)GalNAc(b1-3)Gal": {"biological_target": "Gal(b1-3)GalNAc(b1-3)Gal", "in_short": "as §1"}, "[9]": {"biological_target": "Gal(b1-3)GalNAc(b1-3)Gal(a1-4)Gal(b1-4)Glc", "in_short": "as §1"}, "[10]": {"biological_target": "Gal(b1-3)GalNAc(b1-4)Gal(b1-4)Glc", "in_short": "as §1"}, "[11]": {"biological_target": "Gal(b1-3)GalNAc(b1-4)[Neu5Ac(a2-3)]Gal(b1-4)Glc", "in_short": "as §1"}, "Gal(b1-3)GlcNAc": {"biological_target": "Gal(b1-3)GlcNAc", "in_short": "as §1"}, "[12]": {"biological_target": "Gal(b1-3)GlcNAc(a1-3)Gal(b1-4)GlcNAc", "in_short": "as §1"}, "[13]": {"biological_target": "Gal(b1-3)GlcNAc(a1-6)Gal(b1-4)GlcNAc", "in_short": "as §1"}, "Gal(b1-3)GlcNAc(b1-2)Man": {"biological_target": "Gal(b1-3)GlcNAc(b1-2)Man", "in_short": "as §1"}, "[14]": {"biological_target": "Gal(b1-3)GlcNAc(b1-2)Man(a1-3)[Gal(b1-3)GlcNAc(b1-2)Man(a1-6)]Man(b1-4)GlcNAc(b1-4)GlcNAc", "in_short": "as §1"}, "[15]": {"biological_target": "Gal(b1-3)GlcNAc(b1-2)Man(a1-3)[Gal(b1-3)GlcNAc(b1-2)Man(a1-6)]Man(b1-4)GlcNAc(b1-4)[Fuc(a1-6)]GlcNAc", "in_short": "as §1"}, "[16]": {"biological_target": "Gal(b1-3)GlcNAc(b1-2)Man(a1-3)[GlcNAc(b1-4)][Gal(b1-3)GlcNAc(b1-2)Man(a1-6)]Man(b1-4)GlcNAc(b1-4)GlcNAc", "in_short": "as §1"}, "[17]": {"biological_target": "Gal(b1-3)GlcNAc(b1-2)[Gal(b1-3)GlcNAc(b1-6)]Man(a1-6)[Gal(b1-3)GlcNAc(b1-2)Man(a1-3)]Man(b1-4)GlcNAc(b1-4)GlcNAc", "in_short": "as §1"}, "[18]": {"biological_target": "Gal(b1-3)GlcNAc(b1-3)Gal(b1-3)GlcNAc", "in_short": "as §1"}, "[19]": {"biological_target": "Gal(b1-3)GlcNAc(b1-3)Gal(b1-4)Glc", "in_short": "as §1"}, "[20]": {"biological_target": "Gal(b1-3)GlcNAc(b1-3)Gal(b1-4)GlcNAc", "in_short": "as §1"}, "[21]": {"biological_target": "Gal(b1-3)GlcNAc(b1-3)Gal(b1-4)GlcNAc(b1-2)Man(a1-3)[Gal(b1-3)GlcNAc(b1-3)Gal(b1-4)GlcNAc(b1-2)Man(a1-6)]Man(b1-4)GlcNAc(b1-4)GlcNAc", "in_short": "as §1"}, "[22]": {"biological_target": "Gal(b1-3)GlcNAc(b1-3)Gal(b1-4)GlcNAc(b1-2)[Gal(b1-3)GlcNAc(b1-3)Gal(b1-4)GlcNAc(b1-6)]Man(a1-6)[Gal(b1-3)GlcNAc(b1-3)Gal(b1-4)GlcNAc(b1-2)Man(a1-3)]Man(b1-4)GlcNAc(b1-4)[Fuc(a1-6)]GlcNAc", "in_short": "as §1"}, "[23]": {"biological_target": "Gal(b1-3)GlcNAc(b1-3)Gal(b1-4)GlcNAc(b1-3)Gal(b1-4)GlcNAc(b1-2)[Gal(b1-3)GlcNAc(b1-3)Gal(b1-4)GlcNAc(b1-3)Gal(b1-4)GlcNAc(b1-6)]Man(a1-6)[Gal(b1-3)GlcNAc(b1-3)Gal(b1-4)GlcNAc(b1-3)Gal(b1-4)GlcNAc(b1-2)Man(a1-3)]Man(b1-4)GlcNAc(b1-4)[Fuc(a1-6)]GlcNAc", "in_short": "as §1"}, "[24]": {"biological_target": "Gal(b1-3)GlcNAc(b1-3)Gal(b1-4)GlcNAc(b1-6)[Gal(b1-3)GlcNAc(b1-3)]Gal(b1-4)Glc", "in_short": "as §1"}, "[25]": {"biological_target": "Gal(b1-3)GlcNAc(b1-3)Gal(b1-4)[Fuc(a1-3)]GlcNAc", "in_short": "as §1"}}, "note": "This is one part of the list."}
{"binder": "LSECtin (Homo sapiens), Q6UXB4 (protein) MDTTRYSKWGGSSEEVPGGPWGRWVHWSRRPLFLALAVLVTTVLWAVILSILLSKASTERAALLDGHDLLRTNASKQTAALGALKEEVGDCHSCCSGTQAQLQTTRAELGEAQAKLMEQESALRELRERVTQGLAEAGRGREDVRTELFRALEAVRLQNNSCEPCPTSWLSFEGSCYFFSVPKTTWAAAQDHCADASAHLVIVGGLDEQGFLTRNTRGRGYWLGLRAVRHLGKVQGYQWVDGVSLSFSHWNQGEPNDAWGRENCVMMLHTGLWNDAPCDSEKDGWICEKRHNC", "values": [{"measurement": "glycan array binding signal (z-score)", "setting": "[1]", "value": 0.318}, {"measurement": "glycan array binding signal (z-score)", "setting": "Gal(a1-3)GalNAc", "value": -0.216}, {"measurement": "glycan array binding signal (z-score)", "setting": "[2]", "value": -0.217}, {"measurement": "glycan array binding signal (z-score)", "setting": "[3]", "value": -0.098}, {"measurement": "glycan array binding signal (z-score)", "setting": "Gal(a1-4)Gal(b1-4)Glc", "value": -0.194}, {"measurement": "glycan array binding signal (z-score)", "setting": "Gal(a1-4)Gal(b1-4)GlcNAc", "value": 0.114}, {"measurement": "glycan array binding signal (z-score)", "setting": "[4]", "value": -0.133}, {"measurement": "glycan array binding signal (z-score)", "setting": "[5]", "value": -0.084}, {"measurement": "glycan array binding signal (z-score)", "setting": "Gal(a1-4)GlcNAc", "value": -0.183}, {"measurement": "glycan array binding signal (z-score)", "setting": "Gal(a1-6)Glc", "value": -0.21}, {"measurement": "glycan array binding signal (z-score)", "setting": "Gal(b1-2)Gal", "value": -0.187}, {"measurement": "glycan array binding signal (z-score)", "setting": "Gal(b1-3)Gal", "value": -0.147}, {"measurement": "glycan array binding signal (z-score)", "setting": "Gal(b1-3)Gal(b1-4)GlcNAc", "value": -0.21}, {"measurement": "glycan array binding signal (z-score)", "setting": "[6]", "value": 0.14}, {"measurement": "glycan array binding signal (z-score)", "setting": "Gal(b1-3)GalNAc", "value": -0.155}, {"measurement": "glycan array binding signal (z-score)", "setting": "[7]", "value": -0.259}, {"measurement": "glycan array binding signal (z-score)", "setting": "[8]", "value": -0.243}, {"measurement": "glycan array binding signal (z-score)", "setting": "Gal(b1-3)GalNAc(b1-3)Gal", "value": -0.134}, {"measurement": "glycan array binding signal (z-score)", "setting": "[9]", "value": -0.22}, {"measurement": "glycan array binding signal (z-score)", "setting": "[10]", "value": -0.191}, {"measurement": "glycan array binding signal (z-score)", "setting": "[11]", "value": -0.148}, {"measurement": "glycan array binding signal (z-score)", "setting": "Gal(b1-3)GlcNAc", "value": 0.042}, {"measurement": "glycan array binding signal (z-score)", "setting": "[12]", "value": -0.136}, {"measurement": "glycan array binding signal (z-score)", "setting": "[13]", "value": -0.138}, {"measurement": "glycan array binding signal (z-score)", "setting": "Gal(b1-3)GlcNAc(b1-2)Man", "value": 0.205}, {"measurement": "glycan array binding signal (z-score)", "setting": "[14]", "value": 0.233}, {"measurement": "glycan array binding signal (z-score)", "setting": "[15]", "value": 0.003}, {"measurement": "glycan array binding signal (z-score)", "setting": "[16]", "value": -0.142}, {"measurement": "glycan array binding signal (z-score)", "setting": "[17]", "value": -0.06}, {"measurement": "glycan array binding signal (z-score)", "setting": "[18]", "value": -0.215}, {"measurement": "glycan array binding signal (z-score)", "setting": "[19]", "value": -0.099}, {"measurement": "glycan array binding signal (z-score)", "setting": "[20]", "value": -0.182}, {"measurement": "glycan array binding signal (z-score)", "setting": "[21]", "value": -0.122}, {"measurement": "glycan array binding signal (z-score)", "setting": "[22]", "value": -0.133}, {"measurement": "glycan array binding signal (z-score)", "setting": "[23]", "value": -0.127}, {"measurement": "glycan array binding signal (z-score)", "setting": "[24]", "value": -0.119}, {"measurement": "glycan array binding signal (z-score)", "setting": "[25]", "value": -0.132}]}
